{"source": "paper PMC10726135", "note": "The list shows a part of the results. At the low end of the ranking the order means little. Measured with an extract: partners may take part in the binding."}
{"molecular_target": "T1, HNF4alpha2 (COS-7 nuclear extract) (UniProt P41235)", "T1 sequence": "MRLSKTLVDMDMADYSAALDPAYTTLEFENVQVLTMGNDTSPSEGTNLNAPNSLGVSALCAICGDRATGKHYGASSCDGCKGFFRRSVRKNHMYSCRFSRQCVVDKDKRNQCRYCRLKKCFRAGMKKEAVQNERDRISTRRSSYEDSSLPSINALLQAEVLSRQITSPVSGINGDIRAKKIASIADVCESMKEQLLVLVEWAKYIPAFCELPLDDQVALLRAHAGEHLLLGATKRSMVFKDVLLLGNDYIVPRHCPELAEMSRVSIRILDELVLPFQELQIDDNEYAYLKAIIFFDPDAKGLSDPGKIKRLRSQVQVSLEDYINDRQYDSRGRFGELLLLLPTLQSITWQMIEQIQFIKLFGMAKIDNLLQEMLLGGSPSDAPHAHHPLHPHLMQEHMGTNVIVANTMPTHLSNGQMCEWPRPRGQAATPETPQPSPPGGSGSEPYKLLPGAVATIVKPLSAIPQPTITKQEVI", "assay": "protein-binding microarray", "conditions": "COS-7 nuclear extract on double-stranded Agilent 4x180k PBM; binding buffer, salt, pH and temperature not given; high values mean tight binding; double strand, one strand shown; sequences stand for … in …GCCTAGGGAGATTAGAGTATCGGTCGA"}
{"sequence": "AGGTAAAAAGTCCAGCTGCCAGGGAGACAA", "binding signal (log2 normalized intensity)": -1.09}
{"sequence": "GAGGTTATTTCACCCCAGCAAACAGGTCCT", "binding signal (log2 normalized intensity)": 1.59}
{"sequence": "AATGATTGCATAATCTGGCTCCAAAGTCTA", "binding signal (log2 normalized intensity)": 2.2}
{"sequence": "CACTTGTGCAGTTTTTCTGCCGAAGATATT", "binding signal (log2 normalized intensity)": 1.23}
{"sequence": "TCTGCTGCCCTCTAGGGTTGCCCAGGGAGA", "binding signal (log2 normalized intensity)": -0.85}
{"sequence": "CCAGGGGAGGGTAAGAGTCCAACTTCTGCA", "binding signal (log2 normalized intensity)": 2.13}
{"sequence": "AGTTTCAACTTAACCCCAGTTTAGCAATTT", "binding signal (log2 normalized intensity)": 1.96}
{"sequence": "CAAAGGTCATACCTGTCTAGGTGGAGGGAC", "binding signal (log2 normalized intensity)": 2.88}
{"sequence": "ATGACAATAAATTATACCAACTATTTAAGA", "binding signal (log2 normalized intensity)": -1.18}
{"sequence": "TATAGTTTATCTACCTTTGTACCTTTAGTA", "binding signal (log2 normalized intensity)": 3.8}
{"sequence": "CAAGAGTGACCTTTGCTCCAGTTCCCAATA", "binding signal (log2 normalized intensity)": 6}
{"sequence": "GGCCATCTTCCTCAACATGATGCTTTAGGC", "binding signal (log2 normalized intensity)": -0.756}
{"sequence": "ATGTCTTTCTGGCTGGAGAGGAGGTTATCT", "binding signal (log2 normalized intensity)": 1.01}
{"sequence": "CTGCCTCCCATCTTGCAGCTGACCCTGGCC", "binding signal (log2 normalized intensity)": 2.95}
{"sequence": "GCCCAGCATGCCCCGCGCCGCGTCCCTTCC", "binding signal (log2 normalized intensity)": 1.17}
{"sequence": "AGCCGTCTGGTAAATTTCTAACACTCCCCA", "binding signal (log2 normalized intensity)": 1.97}
{"sequence": "TGATCCTGAAGACAAAGCACAATCAAAGCA", "binding signal (log2 normalized intensity)": -1.16}
{"sequence": "CAACTTAACCCCAGTTTAGCAATTTGCTCT", "binding signal (log2 normalized intensity)": 0.322}
{"sequence": "TTATAAACTTGTTTGGGATTAAAGGATCAA", "binding signal (log2 normalized intensity)": 1.03}
{"sequence": "TGCTAGACAAGGGAATTACTCTTCTATTAC", "binding signal (log2 normalized intensity)": -1.31}
{"sequence": "TTGCCTACATAAGGAGCAGCACTTTGACCT", "binding signal (log2 normalized intensity)": 5.13}
{"sequence": "TTTGGGGGTTGGTATTACAAAGCAATCTAC", "binding signal (log2 normalized intensity)": -0.733}
{"sequence": "TTGCTTAAGCTTTCTGTCTGCAGCTGAACC", "binding signal (log2 normalized intensity)": 1.45}
{"sequence": "GTCATAAATACTCATTATGTTGCTGATAAA", "binding signal (log2 normalized intensity)": 1.18}
{"sequence": "TTGGCCTCTACAGCTACTCCAGCTGGAGAA", "binding signal (log2 normalized intensity)": -1.09}
{"sequence": "CAAAGGGCACCCTTGATGTGTATTTGTAGC", "binding signal (log2 normalized intensity)": 1.39}
{"sequence": "CAATTCCTTATCTCGTTCTGATAGCAAGGA", "binding signal (log2 normalized intensity)": 1.14}
{"sequence": "ACCTTTCTCCCTTTTCACAGGAGAGGAGAA", "binding signal (log2 normalized intensity)": -1.03}
{"sequence": "GGTTTTCGGTTTTCAAATGAACCCGGCAGG", "binding signal (log2 normalized intensity)": 1.86}
{"sequence": "GATTACATTGAGTCCACTGAGATCACTTGG", "binding signal (log2 normalized intensity)": 0.579}
{"sequence": "CCCCGGGGCCGCCTTGGAAAACCCGGCGCG", "binding signal (log2 normalized intensity)": -0.984}
{"sequence": "ACAGGCTTTGAGCATCGCTGGACTCTGCTC", "binding signal (log2 normalized intensity)": 3.94}
{"sequence": "CCACAGTCCTTAAGATCCAAAGGAGTGGTC", "binding signal (log2 normalized intensity)": 0.0718}
{"sequence": "ATTACTGACCCTTGCACTGTAAGATCAAGA", "binding signal (log2 normalized intensity)": 3.13}
{"sequence": "TAAGTTTCTGTCTCACCTGTAAATGTCTCT", "binding signal (log2 normalized intensity)": 0.87}
{"sequence": "GCGGTCCGGACTCTGCCCCACAATTCTTGG", "binding signal (log2 normalized intensity)": 1.97}
{"sequence": "TAATGCGACTTGCCTTGTGTACTCTATCCA", "binding signal (log2 normalized intensity)": 0.778}
{"sequence": "CAGACCCTGGAATTCCAGAAATCTTACTGA", "binding signal (log2 normalized intensity)": -1.04}
{"sequence": "CACCTTCTTTCTCCCAGAGGTCGATCTGAT", "binding signal (log2 normalized intensity)": 1.55}
{"sequence": "GGTGGAATGGAAAGAATATGAACTTTGGAA", "binding signal (log2 normalized intensity)": 5.42}
{"sequence": "AATATAGGATCATGTTGTCTGCAAACAGAG", "binding signal (log2 normalized intensity)": 0.747}
{"sequence": "CTGAACTTTTGGCTCCCTGGGGTTAAAATG", "binding signal (log2 normalized intensity)": 1.99}
{"sequence": "TTTGAGGATTATGGAGATGGAGATGGCCTG", "binding signal (log2 normalized intensity)": 0.568}
{"sequence": "TACCATTCCCACCCCATTTCACAGCAACCT", "binding signal (log2 normalized intensity)": 1.41}
{"sequence": "CCACGCCCGCCGCCAGGTGGCCGAGCAGGA", "binding signal (log2 normalized intensity)": -1.21}
{"sequence": "TCAAAGAATGCCTGGGTCAAATTGGTGCTT", "binding signal (log2 normalized intensity)": 0.484}
{"sequence": "AAACCAGCAGTATCTTTGTGTCACCAATGG", "binding signal (log2 normalized intensity)": 1.26}
{"sequence": "GCTGCTCAGCTGCCTAGAGGCCTGGGAATG", "binding signal (log2 normalized intensity)": -1.09}
{"sequence": "TTTTCTAGCTGAGTTGACCTGTGTTGACAG", "binding signal (log2 normalized intensity)": 2.92}
{"sequence": "ACTCAGGAAAGATCAGCTGAAAACTATGCA", "binding signal (log2 normalized intensity)": -1.09}
{"sequence": "GGAGGGGGCGGTTAAACATTCAGATTCCTG", "binding signal (log2 normalized intensity)": -1.12}
{"sequence": "ACTTAGGGTTCAAAGGTTGTTGAGCACACA", "binding signal (log2 normalized intensity)": 5.06}
{"sequence": "ATACCTAGCTGTTTGCAGGGACAATGGATG", "binding signal (log2 normalized intensity)": 0.958}
{"sequence": "AGGGTGACCCCTGTGGTACAGGCAGTGACT", "binding signal (log2 normalized intensity)": 1.48}
{"sequence": "TGTCACACACAGACTTGGGTTCAAAGAGCA", "binding signal (log2 normalized intensity)": 3.94}
{"sequence": "TTGGGGTCAAGGCCTTTAAGAAGTAGGTGT", "binding signal (log2 normalized intensity)": 1.33}
{"sequence": "CAGTTTGAAATTAGGCAATATGAGTAGAGC", "binding signal (log2 normalized intensity)": -0.693}
{"sequence": "ACTCCAACTCAGCCCCCAGCATTATGAAAT", "binding signal (log2 normalized intensity)": 5.14}
{"sequence": "AAAACTCAGATTCCTATGGTAAATGAATAG", "binding signal (log2 normalized intensity)": -0.582}
{"sequence": "GTAACAGGCCAAAGGGCAAGAACAATCTTG", "binding signal (log2 normalized intensity)": 2.06}
{"sequence": "CTTTGAAGCCCAGAACACTCTACCCCCTCC", "binding signal (log2 normalized intensity)": 4.78}
{"sequence": "GTCACGTGGCTGCTGAGAGGATTAAAAGAT", "binding signal (log2 normalized intensity)": -0.725}
{"sequence": "TCAGTCCAATTCACAGAACTCCCTAAGTGG", "binding signal (log2 normalized intensity)": -1.05}
{"sequence": "CGCATTTCTGCTTCTTCTCATTCTTGGAAT", "binding signal (log2 normalized intensity)": 1.39}
{"sequence": "TCTGACTGCACTGCAATGACAATAAATTAT", "binding signal (log2 normalized intensity)": -0.0668}
{"sequence": "TTAAGGGCAAAGGTTACAATTGTCCCCAAG", "binding signal (log2 normalized intensity)": 4.93}
{"sequence": "GTGCAACAGGAGCCCAGAGACAGTGGAATC", "binding signal (log2 normalized intensity)": -1.07}
{"sequence": "TAATCTGGCTCCAAAGTCTATGTGTGCTTT", "binding signal (log2 normalized intensity)": 2.24}
{"sequence": "GTCTCATTGCCCCTTGAGCTAAATAATTAC", "binding signal (log2 normalized intensity)": 2.08}
{"sequence": "ACTTCATCTAAGTGGGTCTAGGTTCTGGGG", "binding signal (log2 normalized intensity)": 0.826}
{"sequence": "GGAGCCACTGCAGCTTTCTGAGTAGGACAG", "binding signal (log2 normalized intensity)": -1.06}
{"sequence": "AGTCGACCCTCTCTGGATGCAGGTCGCCGG", "binding signal (log2 normalized intensity)": 0.254}
{"sequence": "TCTGTTAGGAATGTCATGCAGCTAAAAGCA", "binding signal (log2 normalized intensity)": -0.979}
{"sequence": "ATGCATTCCATATGGATTAAATCTTGTTGG", "binding signal (log2 normalized intensity)": 1.49}
{"sequence": "AGATTACAGCCACATGCTAACACACCTGGC", "binding signal (log2 normalized intensity)": -1.1}
{"sequence": "CACTCATGGTGTTTGCTTTGTGAAGGCTTA", "binding signal (log2 normalized intensity)": 1.28}
{"sequence": "GTCTCTTCCACCTGGAATGCACTTGTTCCG", "binding signal (log2 normalized intensity)": 0.61}
{"sequence": "CCAAGAGCTTAACCTTTGCCATGTGACAAT", "binding signal (log2 normalized intensity)": 1.97}
{"sequence": "CTCCTGCAGACCCTATTGGGCTAGCCGCTC", "binding signal (log2 normalized intensity)": -1.21}
{"sequence": "TCTTACTGTGTTGTCGTATTTACTCTAGAA", "binding signal (log2 normalized intensity)": 1.36}
{"sequence": "GCCTCCCCCTTCTGAGTCTCCAATGTCCAT", "binding signal (log2 normalized intensity)": 2.29}
{"sequence": "AAGTCTGTTTATCCTGCCTCCATTAATTAA", "binding signal (log2 normalized intensity)": 0.518}
{"sequence": "CAGGAATATCAACAGGAGCAAATATCGCTT", "binding signal (log2 normalized intensity)": -1.14}
{"sequence": "AAGGTTAGGGGGATTCTGGCTAAACCAGCC", "binding signal (log2 normalized intensity)": -1.08}
{"sequence": "CCTGTCAGTCTCTCAATGATTGACAGGTTA", "binding signal (log2 normalized intensity)": -0.854}
{"sequence": "TTTCCAGTTAGGCAGGATGGGGTCATGATA", "binding signal (log2 normalized intensity)": 2.47}
{"sequence": "CCCAAGTAGAGAGCAGTCCTGCACATGAAT", "binding signal (log2 normalized intensity)": -1.16}
{"sequence": "AAAAAAAAAAAAAAGGCAGTCCTTAGATCC", "binding signal (log2 normalized intensity)": -1.09}
{"sequence": "CTTTGAACCAGATGGCCCTCTCCAAGGCGG", "binding signal (log2 normalized intensity)": -1.05}
{"sequence": "CTTTCATGCCGGCGTGACCCCCACTGCCTG", "binding signal (log2 normalized intensity)": 4.24}
{"sequence": "ATTGCAGACAGCATAGGAAGTGGGGAAGAA", "binding signal (log2 normalized intensity)": -1.2}
{"sequence": "TTTTAATTAGAACTGTAATTGAGTAACCAG", "binding signal (log2 normalized intensity)": 1.36}
{"sequence": "AGACAGGAGTAGTCAAATTTGTCTAGCGCA", "binding signal (log2 normalized intensity)": -1.12}
